Data from patent US20240076343A1 (CEPHALON, published 2024).

How the values were obtained:
Experiment in all cases: cell-based or functional assay
[1] = molecular target: T1, intermediate-affinity hIL-2 receptor (IL-2Rβγ) on TF1+IL-2Rβ cells (human, UniProt P14784 27-551; P31785 23-369)
T1 sequence 1: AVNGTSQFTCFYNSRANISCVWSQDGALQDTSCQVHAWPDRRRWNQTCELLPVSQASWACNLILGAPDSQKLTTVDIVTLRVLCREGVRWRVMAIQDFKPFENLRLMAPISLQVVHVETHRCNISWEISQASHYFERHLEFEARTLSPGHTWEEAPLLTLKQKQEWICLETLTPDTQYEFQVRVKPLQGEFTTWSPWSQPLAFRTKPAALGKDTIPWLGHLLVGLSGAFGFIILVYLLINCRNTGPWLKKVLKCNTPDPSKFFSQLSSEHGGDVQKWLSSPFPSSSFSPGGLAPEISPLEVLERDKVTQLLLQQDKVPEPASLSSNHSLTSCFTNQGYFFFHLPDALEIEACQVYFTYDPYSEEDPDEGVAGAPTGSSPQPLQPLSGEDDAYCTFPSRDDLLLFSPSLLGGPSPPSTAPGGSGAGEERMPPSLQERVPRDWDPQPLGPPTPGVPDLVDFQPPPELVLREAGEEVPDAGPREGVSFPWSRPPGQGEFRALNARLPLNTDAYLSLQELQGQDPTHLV
T1 sequence 2: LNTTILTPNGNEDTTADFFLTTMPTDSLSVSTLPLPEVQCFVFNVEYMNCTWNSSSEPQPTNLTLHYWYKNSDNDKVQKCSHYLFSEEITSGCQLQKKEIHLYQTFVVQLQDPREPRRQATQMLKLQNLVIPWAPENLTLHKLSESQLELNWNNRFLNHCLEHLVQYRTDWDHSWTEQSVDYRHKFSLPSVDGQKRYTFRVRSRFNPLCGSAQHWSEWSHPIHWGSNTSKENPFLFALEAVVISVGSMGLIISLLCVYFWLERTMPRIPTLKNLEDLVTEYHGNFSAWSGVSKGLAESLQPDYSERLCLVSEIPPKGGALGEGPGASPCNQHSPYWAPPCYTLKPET

[2] = molecular target: T2, high-affinity hIL-2 receptor (IL-2Rαβγ) on NK-92 cells (human, UniProt P01589 22-272; P14784 27-551; P31785 23-369)
T2 sequence 1: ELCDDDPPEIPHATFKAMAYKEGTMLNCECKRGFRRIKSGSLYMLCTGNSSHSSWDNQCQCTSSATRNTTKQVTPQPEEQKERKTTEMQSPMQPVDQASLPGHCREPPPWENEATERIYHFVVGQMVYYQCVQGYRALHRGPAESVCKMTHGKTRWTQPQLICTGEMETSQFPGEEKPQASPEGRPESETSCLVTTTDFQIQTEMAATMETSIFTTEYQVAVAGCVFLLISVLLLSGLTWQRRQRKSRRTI
T2 sequence 2: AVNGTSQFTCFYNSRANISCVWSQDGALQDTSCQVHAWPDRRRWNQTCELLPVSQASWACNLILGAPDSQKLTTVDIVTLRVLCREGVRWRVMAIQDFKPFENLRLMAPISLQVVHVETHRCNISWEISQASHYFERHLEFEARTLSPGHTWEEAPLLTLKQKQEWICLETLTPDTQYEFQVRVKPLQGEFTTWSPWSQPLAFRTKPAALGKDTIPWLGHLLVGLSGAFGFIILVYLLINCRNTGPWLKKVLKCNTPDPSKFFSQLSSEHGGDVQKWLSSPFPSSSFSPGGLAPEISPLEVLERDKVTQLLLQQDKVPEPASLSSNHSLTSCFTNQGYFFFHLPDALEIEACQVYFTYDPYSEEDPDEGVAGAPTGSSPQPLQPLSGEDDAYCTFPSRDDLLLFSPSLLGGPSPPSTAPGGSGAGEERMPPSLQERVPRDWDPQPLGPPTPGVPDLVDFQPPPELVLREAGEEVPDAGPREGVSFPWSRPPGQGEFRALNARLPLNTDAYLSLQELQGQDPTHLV
T2 sequence 3: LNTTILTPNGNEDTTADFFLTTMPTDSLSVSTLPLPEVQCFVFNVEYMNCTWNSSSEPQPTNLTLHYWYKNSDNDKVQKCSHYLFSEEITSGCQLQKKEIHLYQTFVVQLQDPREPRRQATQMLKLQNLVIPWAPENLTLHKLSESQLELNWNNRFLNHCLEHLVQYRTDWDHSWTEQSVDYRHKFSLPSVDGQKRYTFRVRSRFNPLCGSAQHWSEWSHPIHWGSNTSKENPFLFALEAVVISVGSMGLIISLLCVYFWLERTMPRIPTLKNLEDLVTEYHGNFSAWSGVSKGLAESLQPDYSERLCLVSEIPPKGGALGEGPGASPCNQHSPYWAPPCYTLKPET

[3] = molecular target: T1, intermediate-affinity hIL-2 receptor …; remark: listed apart in the source

B1: C51E6-5-hIgG4-LE-df-hIL-2 (T3A/D20A/R38E/C125A) (other)
heavy: QVQLVQSGSELKKPGASVKVSCKASGYSLYGTSMHWVRQAPGQGLEWMGYISPFTGRATYAQGFTGRFVFSLDTSVSTAYLQISSLKAEDTAVYYCARDYDYRYYYAMDYWGQGTTVTVSSASTKGPSVFPLAPCSRSTSESTAALGCLVKDYFPEPVTVSWNSGALTSGVHTFPAVLQSSGLYSLSSVVTVPSSSLGTKTYTCNVDHKPSNTKVDKRV[not shown - human IgG4 Fc with changes]APASSSTKKTQLQLEHLLLALQMILNGINNYKNPKLTEMLTFKFYMPKKATELKHLQCLEEELKPLEEVLNLAQSKNFHLRPRDLISNINVIVLELKGSETTFMCEYADETATIVEFLNRWITFAQSIISTLT
light: EIVLTQSPDFQSVTPKEKVTITCTASESVPPQFLHWYQQKPDQSPKLLIYASRERASGVPSRFSGSGSGTDFTLTINSLEAEDAATYYCHQFHRSPLTFGGGTKLEIKRTVAAPSVFIFPPSDEQLKSGTASVVCLLNNFYPREAKVQWKVDNALQSGNSQESVTEQDSKDSTYSLSSTLTLSKADYEKHKVYACEVTHQGLSSPVTKSFNRGEC
Fold decrease from rhIL-2 (TF1 + IL-2Rβ + hPD-1) [1]: ~1 fold
Agonistic Activity (NK-92) [2]: 80%
Fold change from rhIL-2 (NK-92) [2]: 4330 fold
Agonistic Activity (TF1 + IL-2Rβ) [3]: 70%
Fold change from rhIL-2 (TF1 + IL-2Rβ) [3]: > 10000 fold

B2: C51E6-5-hIgG4-LAGA-df-hIL-2 (T3A/D20A/R38E/C125A) (other)
heavy: QVQLVQSGSELKKPGASVKVSCKASGYSLYGTSMHWVRQAPGQGLEWMGYISPFTGRATYAQGFTGRFVFSLDTSVSTAYLQISSLKAEDTAVYYCARDYDYRYYYAMDYWGQGTTVTVSSASTKGPSVFPLAPCSRSTSESTAALGCLVKDYFPEPVTVSWNSGALTSGVHTFPAVLQSSGLYSLSSVVTVPSSSLGTKTYTCNVDHKPSNTKVDKRV[not shown - human IgG4 Fc with S228P L235A G237A (EU numbers)]APASSSTKKTQLQLEHLLLALQMILNGINNYKNPKLTEMLTFKFYMPKKATELKHLQCLEEELKPLEEVLNLAQSKNFHLRPRDLISNINVIVLELKGSETTFMCEYADETATIVEFLNRWITFAQSIISTLT
light: EIVLTQSPDFQSVTPKEKVTITCTASESVPPQFLHWYQQKPDQSPKLLIYASRERASGVPSRFSGSGSGTDFTLTINSLEAEDAATYYCHQFHRSPLTFGGGTKLEIKRTVAAPSVFIFPPSDEQLKSGTASVVCLLNNFYPREAKVQWKVDNALQSGNSQESVTEQDSKDSTYSLSSTLTLSKADYEKHKVYACEVTHQGLSSPVTKSFNRGEC
Fold decrease from rhIL-2 (TF1 + IL-2Rβ + hPD-1) [1]: ~0 fold
Agonistic Activity (NK-92) [2]: 60%
Fold change from rhIL-2 (NK-92) [2]: 4340 fold
Agonistic Activity (TF1 + IL-2Rβ) [3]: 60%
Fold change from rhIL-2 (TF1 + IL-2Rβ) [3]: > 10000 fold

B3: 2H7-hIgG1-df-hIL-2 (T3A/D20A/R38E/C125A) (other)
heavy: EVQLLESGGGLVQPGGSLRLSCAASGFTFKDYCMTWVRQAPGKGLEWVSAIVYSGGSTYYADSVKGRFTISRDNSKNTLYLQMNNLRAEDTAVYYCAKYTRASYFYDAMDVWGQGTTVTVSS[not shown - human IgG1 constant region]APASSSTKKTQLQLEHLLLALQMILNGINNYKNPKLTEMLTFKFYMPKKATELKHLQCLEEELKPLEEVLNLAQSKNFHLRPRDLISNINVIVLELKGSETTFMCEYADETATIVEFLNRWITFAQSIISTLT
light: EIVLTQSPGTLSLSPGERATLSCRASQSIGKSFLAWYQQKPGQAPRLLIYDASTRAADIPARFSGSGSGTDFTLTISSLEPEDFAVYYCQQYYDWPPLSFGGGTKVEIKRTVAAPSVFIFPPSDEQLKSGTASVVCLLNNFYPREAKVQWKVDNALQSGNSQESVTEQDSKDSTYSLSSTLTLSKADYEKHKVYACEVTHQGLSSPVTKSFNRGEC
Fold decrease from rhIL-2 (TF1 + IL-2Rβ + hPD-1) [1]: ~1 fold
Fold change from rhIL-2 (NK-92) [2]: ~4840 fold
Fold change from rhIL-2 (TF1 + IL-2Rβ) [3]: ~2060 fold

B4: 2H7-hIgG1-LE-df-hIL-2 (T3A/D20A/R38E/C125A) (other)
heavy: EVQLLESGGGLVQPGGSLRLSCAASGFTFKDYCMTWVRQAPGKGLEWVSAIVYSGGSTYYADSVKGRFTISRDNSKNTLYLQMNNLRAEDTAVYYCAKYTRASYFYDAMDVWGQGTTVTVSS[not shown - human IgG1 constant region with changes]APASSSTKKTQLQLEHLLLALQMILNGINNYKNPKLTEMLTFKFYMPKKATELKHLQCLEEELKPLEEVLNLAQSKNFHLRPRDLISNINVIVLELKGSETTFMCEYADETATIVEFLNRWITFAQSIISTLT
light: EIVLTQSPGTLSLSPGERATLSCRASQSIGKSFLAWYQQKPGQAPRLLIYDASTRAADIPARFSGSGSGTDFTLTISSLEPEDFAVYYCQQYYDWPPLSFGGGTKVEIKRTVAAPSVFIFPPSDEQLKSGTASVVCLLNNFYPREAKVQWKVDNALQSGNSQESVTEQDSKDSTYSLSSTLTLSKADYEKHKVYACEVTHQGLSSPVTKSFNRGEC
Fold decrease from rhIL-2 (TF1 + IL-2Rβ + hPD-1) [1]: 0 fold
Fold change from rhIL-2 (NK-92) [2]: ~7730 fold
Agonistic Activity (TF1 + IL-2Rβ) [3]: 80%
Fold change from rhIL-2 (TF1 + IL-2Rβ) [3]: ~6730 fold

B5: 2H7-hIgG4-df-hIL-2 (T3A/R38E/D84K/C125A) (other)
heavy: EVQLLESGGGLVQPGGSLRLSCAASGFTFKDYCMTWVRQAPGKGLEWVSAIVYSGGSTYYADSVKGRFTISRDNSKNTLYLQMNNLRAEDTAVYYCAKYTRASYFYDAMDVWGQGTTVTVSSASTKGPSVFPLAPCSRSTSESTAALGCLVKDYFPEPVTVSWNSGALTSGVHTFPAVLQSSGLYSLSSVVTVPSSSLGTKTYTCNVDHKPSNTKVDKRV[not shown - human IgG4 Fc with S228P (EU numbers)]APASSSTKKTQLQLEHLLLDLQMILNGINNYKNPKLTEMLTFKFYMPKKATELKHLQCLEEELKPLEEVLNLAQSKNFHLRPRKLISNINVIVLELKGSETTFMCEYADETATIVEFLNRWITFAQSIISTLT
light: EIVLTQSPGTLSLSPGERATLSCRASQSIGKSFLAWYQQKPGQAPRLLIYDASTRAADIPARFSGSGSGTDFTLTISSLEPEDFAVYYCQQYYDWPPLSFGGGTKVEIKRTVAAPSVFIFPPSDEQLKSGTASVVCLLNNFYPREAKVQWKVDNALQSGNSQESVTEQDSKDSTYSLSSTLTLSKADYEKHKVYACEVTHQGLSSPVTKSFNRGEC
Fold decrease from rhIL-2 (TF1 + IL-2Rβ + hPD-1) [1]: ~1 fold
Agonistic Activity (NK-92) [2]: 90%
Fold change from rhIL-2 (NK-92) [2]: 1600 fold
Fold change from rhIL-2 (TF1 + IL-2Rβ) [3]: > 10000 fold

B6: 2H7-hIgG1-LE-df-hIL-2 (T3A/R38E/D84K/C125A) (other)
heavy: EVQLLESGGGLVQPGGSLRLSCAASGFTFKDYCMTWVRQAPGKGLEWVSAIVYSGGSTYYADSVKGRFTISRDNSKNTLYLQMNNLRAEDTAVYYCAKYTRASYFYDAMDVWGQGTTVTVSS[not shown - human IgG1 constant region with changes]APASSSTKKTQLQLEHLLLDLQMILNGINNYKNPKLTEMLTFKFYMPKKATELKHLQCLEEELKPLEEVLNLAQSKNFHLRPRKLISNINVIVLELKGSETTFMCEYADETATIVEFLNRWITFAQSIISTLT
light: EIVLTQSPGTLSLSPGERATLSCRASQSIGKSFLAWYQQKPGQAPRLLIYDASTRAADIPARFSGSGSGTDFTLTISSLEPEDFAVYYCQQYYDWPPLSFGGGTKVEIKRTVAAPSVFIFPPSDEQLKSGTASVVCLLNNFYPREAKVQWKVDNALQSGNSQESVTEQDSKDSTYSLSSTLTLSKADYEKHKVYACEVTHQGLSSPVTKSFNRGEC
Fold decrease from rhIL-2 (TF1 + IL-2Rβ + hPD-1) [1]: ~1 fold
Agonistic Activity (NK-92) [2]: 90%
Fold change from rhIL-2 (NK-92) [2]: 1270 fold
Fold change from rhIL-2 (TF1 + IL-2Rβ) [3]: ~517 fold
